PubChem BioAssay AID1508642 (National Center for Advancing Translational Sciences (NCATS), 2021)
Out of some 43,000 compounds screened, about 200 (0.47%) were called active. Inconclusive results, whose numbers are uncertain, are shown with a selection of clear calls. The call rests on the fitted dose curve; in most records, active means well fitted cell-killing curve with a large enough effect; inconclusive means small, poorly fitted or top-dose-only effect, or effect the other way; inactive means flat fitted curve, though single readings scatter. Potencies of inconclusive entries are doubtful fits and often do not repeat.

Experiment: Cell viability qHTS assay in S16 Pmp22-F2sN cells; further: nearly all actives have a fitted effect of over 65% in size
Conditions: S16 Pmp22-F2sN Schwann cells viability, CellTiter-Glo, 24 h; activity change, negative = cytotoxicity: at 57.5 µM (top of the series)
Summary of the method: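 Viability was measured by CellTiter-Glo luminescence (15 min, room temperature). This followed 24 h at 37 °C of compound exposure (23 nL pin transfer) in S16 Pmp22-F2sN Schwann cells, 500-1,000 per well.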
On the % scale 0 is the no-effect control and ±100 the full control effect; potency means the concentration at half of the fitted maximal effect; tags describe the fitted curve by direction and shape.

SMILES	Potency	activity change, negative = cytotoxicity
CCN(CCCNC(=O)CSc1cc(=O)n(C)c2cc(Cl)ccc12)c1ccccc1	inconclusive: 39.8 µM [cytotoxic, partial curve, poor fit]	
CN1CCN(CCNC(=O)c2cnn(-c3cccc(Cl)c3)c2C2CCN(C(=O)OC(C)(C)C)CC2)CC1		inactive: 1.13%
CCN1CCN(c2cc(C)c3cc(NC(=O)c4cc(Br)ccc4Cl)ccc3n2)CC1	inconclusive: 39.8 µM [cytotoxic, single point]	
CCC1CN(C(=O)N2CCC(C(=O)NCCCc3ccccc3)CC2)c2ccccc2O1 (stereo not drawn)	inconclusive: 28.2 µM [cytotoxic, single point]	
COc1ccc(C(=O)Nc2cc3cc(Cl)ccc3oc2=O)cc1OC		inactive: 0.708%
CCc1nc2ccccc2n1CCCCOc1ccc(Cl)cc1	inconclusive: 39.8 µM [cytotoxic, single point]	
Cn1cc(S(=O)(=O)N2CCCCCC2)cc1C(=O)Nc1ccccc1F	inconclusive: 12.6 µM [rising, partial curve]	
COc1ccc(N2CCN(C(=O)c3cn(C4CCCCC4)c(=O)c4c3c3ccccc3n4C)CC2)cc1	inconclusive: 35.5 µM [cytotoxic, single point]	
O=C(C1CCCCC1)N(Cc1cccnc1)c1nc2c(F)cccc2s1	inconclusive: 35.5 µM [cytotoxic, single point]	
Cc1ccc(N(C)S(=O)(=O)c2ccc(-c3cnc(C4CC4)o3)cc2)cc1	inconclusive: 7.94 µM [cytotoxic, partial curve, poor fit]	
CCn1c(CN2CCCCC2)nc2cc(NC(=O)COc3cc(C)ccc3C(C)C)ccc21	inconclusive: 39.8 µM [cytotoxic, single point]	
CCC(=O)Nc1cc(-c2nc3cc(C)cc(C)c3o2)ccc1C		inactive: 13.6%
Cc1cccc2c1-c1sc(C(=O)Nc3ccccc3C(N)=O)cc1CO2	inconclusive: 28.2 µM [cytotoxic, partial curve, poor fit]	
O=C1c2[nH]nc(-c3ccccc3O)c2C(c2cccc(Br)c2)N1Cc1ccncc1 (stereo not drawn)	inconclusive: 10 µM [cytotoxic, partial curve]	
COc1ccc(Cn2c(C(=O)O)c(CNCCc3ccccc3Cl)c3ccc(C)cc32)cc1	inconclusive: 31.6 µM [cytotoxic, single point]	
CCOc1ccc(-c2c(C)nn3c(C)c(C(=O)NCC(C)c4ccccc4)cnc23)cc1OCC (stereo not drawn)		inactive: 3.84%
CCCCNc1cc(NC2CCCCC2)c2c3c(onc13)-c1ccccc1C2=O	inconclusive: 28.2 µM [cytotoxic, single point]	
CCN(C(=O)Cn1c(SCC(=O)NCc2ccccc2)nc2ccccc21)c1cccc(C)c1	inconclusive: 22.4 µM [cytotoxic, partial curve, poor fit]	
O=C(NCc1ccccc1Cl)c1cnc(N2CCCCC2)c2ccccc12		inactive: 2.81%

SMILES	Potency	activity change, negative = cytotoxicity
Cc1ccc(NC(=O)c2nc(S(=O)(=O)Cc3cccc(C)c3)ncc2Cl)cc1	inconclusive: 35.5 µM [cytotoxic, single point]	
Cc1ccc(N2C(=O)c3oc4cc(C)c(C)cc4c(=O)c3C2c2cccc(O)c2)nc1 (stereo not drawn)		inactive: 4.25%
Cn1c(C(=O)NCc2ccc(F)cc2)cc2cc(S(=O)(=O)N3CCCCC3)ccc21	inconclusive: 39.8 µM [cytotoxic, partial curve, poor fit]	
COc1cccc(N2C(=O)C(CC(=O)Nc3ccc(F)cc3)N(CCC3=CCCCC3)C2=O)c1 (stereo not drawn)	inconclusive: 14.1 µM [cytotoxic, partial curve]	
O=C1C2=C(Nc3ccccc3SC2c2ccc(Cl)c(Cl)c2)c2ccccc21 (stereo not drawn)	inconclusive: 25.1 µM [cytotoxic, single point]	
COc1ccc(NC(=O)CN(C)S(=O)(=O)c2ccc(C(=O)N3CCOCC3)s2)cc1	inconclusive: 7.08 µM [cytotoxic, single point]	
COc1ccc(/C=C/C(=O)N2CCC(c3nc4ccccc4o3)CC2)cc1	inconclusive: 14.1 µM [cytotoxic, partial curve, poor fit]	
COc1cccc(C(=O)Nc2cc(-c3ccccc3)nn2-c2ccccc2)c1	inconclusive: 1 µM [cytotoxic, full curve, poor fit]	
CCS(=O)(=O)c1nc(S(=O)(=O)c2ccc(C)cc2)c(NCc2ccc(Cl)cc2)s1	inconclusive: 35.5 µM [cytotoxic, single point]	
CCOC(=O)c1[nH]c2ccccc2c1NC(=O)c1ccccc1OC	inconclusive: 39.8 µM [cytotoxic, single point]	
CCc1ccc(CNC(=O)C(CC)n2nc(C)c3c(C)n(-c4ccccc4)nc3c2=O)cc1 (stereo not drawn)	inconclusive: 14.1 µM [cytotoxic, partial curve]	
O=C(COc1ccccc1Cl)Nc1ccccc1OCc1cc(=O)n2ccccc2n1	inconclusive: 2.82 µM [rising, single point]	
CCC1CCCCN1CCCNC(=O)c1ccc2c(c1)sc1nc(-c3ccc(F)cc3)cn12 (stereo not drawn)	inconclusive: 35.5 µM [cytotoxic, single point]	
Cc1cc(C)cc(NC(=O)C(=O)NCC(c2cccnc2)N2CCc3ccccc32)c1 (stereo not drawn)	inconclusive: 39.8 µM [cytotoxic, partial curve, poor fit]	
O=S(=O)(Nc1cccc(-c2ccc(N3CCOCC3)nn2)c1)c1cc(C(F)(F)F)ccc1Cl	inconclusive: 14.1 µM [rising, partial curve, poor fit]	
COc1ccc(C2c3c(-c4ccccc4O)n[nH]c3C(=O)N2CCc2ccccc2)cc1 (stereo not drawn)	inconclusive: 31.6 µM [cytotoxic, single point]	
Cc1c(C(=O)Nc2ccc(F)cc2F)sc2nc3n(c(=O)c12)N=C(c1ccccc1)CS3	inconclusive: 39.8 µM [cytotoxic, single point]	
O=C1c2ccccc2-c2onc3c(NCCO)cc(NC4CCCCC4)c1c23	inconclusive: 25.1 µM [cytotoxic, single point]	
COc1ccc(N2CCN(c3csc4ccccc4c3=O)CC2)cc1		inactive: 2.02%
